These are yes or no findings as the source states them, for the method shown. Binding seen in cells or lysates may run through a third protein. Some results given as binding are weak or reduced against the parent protein; the word gives no strength. Blank lines part the entries; values can stand above or below the binder they belong to.
Tests used:
[1] = target: GST-Rab5 (UniProt P20339); assay: pull-down; GST-Rab5-GDP-loaded beads incubated with bovine brain or HeLa cell cytosol, washed, eluted; Western blot with anti-Rabankyrin-5 antibodies; only the target purified
[2] = target: GST-Rab5 (UniProt P20339); assay: pull-down; GST-Rab5-GTPγS-loaded beads incubated with bovine brain or HeLa cell cytosol, washed, eluted; Western blot with anti-Rabankyrin-5 antibodies; only the target purified
[3] = target: GST-Rab11 (UniProt P62491); assay: pull-down; GST-Rab fusion proteins on glutathione-sepharose beads preloaded with GDP, incubated with in vitro-translated 35S-methionine-labelled protein; SDS-PAGE and phosphoimager analysis; only the target purified
[4] = target: GST-Rab5 (UniProt P20339); assay: as above
[5] = target: GST-Rab11 (UniProt P62491); assay: pull-down; GST-Rab fusion proteins on glutathione-sepharose beads preloaded with GTPγS, incubated with in vitro-translated 35S-methionine-labelled protein; SDS-PAGE and phosphoimager analysis; only the target purified
[6] = target: GST-Rab5 (UniProt P20339); assay: as above
[7] = target: GST-Rab7, P51149; assay: pull-down; GST-Rab fusion proteins on glutathione-sepharose beads preloaded with GDP, incubated with in vitro-translated 35S-methionine-labelled protein; SDS-PAGE and phosphoimager analysis; only the target purified; conditions: remark: other sources report otherwise
[8] = target: GST-Rab7, P51149; assay: pull-down; GST-Rab fusion proteins on glutathione-sepharose beads preloaded with GTPγS, incubated with in vitro-translated 35S-methionine-labelled protein; SDS-PAGE and phosphoimager analysis; only the target purified; conditions: remark: other sources report otherwise

The chains behind the UniProt entries cited, without tags or fusion partners.
UniProt P20339: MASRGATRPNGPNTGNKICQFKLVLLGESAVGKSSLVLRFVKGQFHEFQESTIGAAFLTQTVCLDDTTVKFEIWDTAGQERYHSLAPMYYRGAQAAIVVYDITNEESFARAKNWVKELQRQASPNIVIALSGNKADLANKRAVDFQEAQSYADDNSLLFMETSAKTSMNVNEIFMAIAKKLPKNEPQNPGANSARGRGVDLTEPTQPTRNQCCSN
UniProt P62491: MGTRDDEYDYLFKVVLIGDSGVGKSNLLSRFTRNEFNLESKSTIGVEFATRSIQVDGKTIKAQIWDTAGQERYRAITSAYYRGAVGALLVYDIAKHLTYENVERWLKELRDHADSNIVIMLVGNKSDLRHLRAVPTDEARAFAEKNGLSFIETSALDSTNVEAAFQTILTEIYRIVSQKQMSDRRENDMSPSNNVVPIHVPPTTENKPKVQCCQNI

binding [2]: binds
B1: Rabankyrin-5 of HeLa cell cytosol (protein, UniProt Q9P2R3 1-1169)
chain: MAEEEVAKLEKHLMLLRQEYVKLQKKLAETEKRCALLAAQANKESSSESFISRLLAIVADLYEQEQYSDLKIKVGDRHISAHKFVLAARSDSWSLANLSSTKELDLSDANPEVTMTMLRWIYTDELEFREDDVFLTELMKLANRFQLQLLRERCEKGVMSLVNVRNCIRFYQTAEELNASTLMNYCAEIIASHWDDLRKEDFSSMSAQLLYKMIKSKTEYPLHKAIKVEREDVVFLYLIEMDSQLPGKLNEADHNGDLALDLALSRRLESIATTLVSHKADVDMVDKSGWSLLHKGIQRGDLFAATFLIKNGAFVNAATLGAQETPLHLVALYSSKKHSADVMSEMAQIAEALLQAGANPNMQDSKGRTPLHVSIMAGNEYVFSQLLQCKQLDLELKDHEGSTALWLAVQHITVSSDQSVNPFEDVPVVNGTSFDENSFAARLIQRGSHTDAPDTATGNCLLQRAAGAGNEAAALFLATNGAHVNHRNKWGETPLHTACRHGLANLTAELLQQGANPNLQTEEALPLPKEAASLTSLADSVHLQTPLHMAIAYNHPDVVSVILEQKANALHATNNLQIIPDFSLKDSRDQTVLGLALWTGMHTIAAQLLGSGAAINDTMSDGQTLLHMAIQRQDSKSALFLLEHQADINVRTQDGETALQLAIRNQLPLVVDAICTRGADMSVPDEKGNPPLWLALANNLEDIASTLVRHGCDATCWGPGPGGCLQTLLHRAIDENNEPTACFLIRSGCDVNSPRQPGANGEGEEEARDGQTPLHLAASWGLEETVQCLLEFGANVNAQDAEGRTPIHVAISSQHGVIIQLLVSHPDIHLNVRDRQGLTPFACAMTFKNNKSAEAILKRESGAAEQVDNKGRNFLHVAVQNSDIESVLFLISVHANVNSRVQDASKLTPLHLAVQAGSEIIVRNLLLAGAKVNELTKHRQTALHLAAQQDLPTICSVLLENGVDFAAVDENGNNALHLAVMHGRLNNIRVLLTECTVDAEAFNLRGQSPLHILGQYGKENAAAIFDLFLECMPGYPLDKPDADGSTVLLLAYMKGNANLCRAIVRSGARLGVNNNQGVNIFNYQVATKQLLFRLLDMLSKEPPWCDGSYCYECTARFGVTTRKHHCRHCGRLLCHKCSTKEIPIIKFDLNKPVRVCNICFDVLTLGGVS
binding [1]: no binding (condition: Rab5 loaded with GDP)

binding [3]: no binding
binding [5]: no binding
binding [6]: binds
B2: in vitro-translated 35S-methionine-labelled Rabankyrin-5 full-length protein (protein, UniProt Q9P2R3 1-1169)
chain: MAEEEVAKLEKHLMLLRQEYVKLQKKLAETEKRCALLAAQANKESSSESFISRLLAIVADLYEQEQYSDLKIKVGDRHISAHKFVLAARSDSWSLANLSSTKELDLSDANPEVTMTMLRWIYTDELEFREDDVFLTELMKLANRFQLQLLRERCEKGVMSLVNVRNCIRFYQTAEELNASTLMNYCAEIIASHWDDLRKEDFSSMSAQLLYKMIKSKTEYPLHKAIKVEREDVVFLYLIEMDSQLPGKLNEADHNGDLALDLALSRRLESIATTLVSHKADVDMVDKSGWSLLHKGIQRGDLFAATFLIKNGAFVNAATLGAQETPLHLVALYSSKKHSADVMSEMAQIAEALLQAGANPNMQDSKGRTPLHVSIMAGNEYVFSQLLQCKQLDLELKDHEGSTALWLAVQHITVSSDQSVNPFEDVPVVNGTSFDENSFAARLIQRGSHTDAPDTATGNCLLQRAAGAGNEAAALFLATNGAHVNHRNKWGETPLHTACRHGLANLTAELLQQGANPNLQTEEALPLPKEAASLTSLADSVHLQTPLHMAIAYNHPDVVSVILEQKANALHATNNLQIIPDFSLKDSRDQTVLGLALWTGMHTIAAQLLGSGAAINDTMSDGQTLLHMAIQRQDSKSALFLLEHQADINVRTQDGETALQLAIRNQLPLVVDAICTRGADMSVPDEKGNPPLWLALANNLEDIASTLVRHGCDATCWGPGPGGCLQTLLHRAIDENNEPTACFLIRSGCDVNSPRQPGANGEGEEEARDGQTPLHLAASWGLEETVQCLLEFGANVNAQDAEGRTPIHVAISSQHGVIIQLLVSHPDIHLNVRDRQGLTPFACAMTFKNNKSAEAILKRESGAAEQVDNKGRNFLHVAVQNSDIESVLFLISVHANVNSRVQDASKLTPLHLAVQAGSEIIVRNLLLAGAKVNELTKHRQTALHLAAQQDLPTICSVLLENGVDFAAVDENGNNALHLAVMHGRLNNIRVLLTECTVDAEAFNLRGQSPLHILGQYGKENAAAIFDLFLECMPGYPLDKPDADGSTVLLLAYMKGNANLCRAIVRSGARLGVNNNQGVNIFNYQVATKQLLFRLLDMLSKEPPWCDGSYCYECTARFGVTTRKHHCRHCGRLLCHKCSTKEIPIIKFDLNKPVRVCNICFDVLTLGGVS
modifications: 35S-methionine labelled
binding [4]: no binding (condition: Rab5 preloaded with GDP)

binding [7]: no binding
binding [8]: no binding
B3: in vitro-translated 35S-methionine-labelled Rabankyrin-5 full-length protein, Q9P2R3 1-1169 (protein)
chain: MAEEEVAKLEKHLMLLRQEYVKLQKKLAETEKRCALLAAQANKESSSESFISRLLAIVADLYEQEQYSDLKIKVGDRHISAHKFVLAARSDSWSLANLSSTKELDLSDANPEVTMTMLRWIYTDELEFREDDVFLTELMKLANRFQLQLLRERCEKGVMSLVNVRNCIRFYQTAEELNASTLMNYCAEIIASHWDDLRKEDFSSMSAQLLYKMIKSKTEYPLHKAIKVEREDVVFLYLIEMDSQLPGKLNEADHNGDLALDLALSRRLESIATTLVSHKADVDMVDKSGWSLLHKGIQRGDLFAATFLIKNGAFVNAATLGAQETPLHLVALYSSKKHSADVMSEMAQIAEALLQAGANPNMQDSKGRTPLHVSIMAGNEYVFSQLLQCKQLDLELKDHEGSTALWLAVQHITVSSDQSVNPFEDVPVVNGTSFDENSFAARLIQRGSHTDAPDTATGNCLLQRAAGAGNEAAALFLATNGAHVNHRNKWGETPLHTACRHGLANLTAELLQQGANPNLQTEEALPLPKEAASLTSLADSVHLQTPLHMAIAYNHPDVVSVILEQKANALHATNNLQIIPDFSLKDSRDQTVLGLALWTGMHTIAAQLLGSGAAINDTMSDGQTLLHMAIQRQDSKSALFLLEHQADINVRTQDGETALQLAIRNQLPLVVDAICTRGADMSVPDEKGNPPLWLALANNLEDIASTLVRHGCDATCWGPGPGGCLQTLLHRAIDENNEPTACFLIRSGCDVNSPRQPGANGEGEEEARDGQTPLHLAASWGLEETVQCLLEFGANVNAQDAEGRTPIHVAISSQHGVIIQLLVSHPDIHLNVRDRQGLTPFACAMTFKNNKSAEAILKRESGAAEQVDNKGRNFLHVAVQNSDIESVLFLISVHANVNSRVQDASKLTPLHLAVQAGSEIIVRNLLLAGAKVNELTKHRQTALHLAAQQDLPTICSVLLENGVDFAAVDENGNNALHLAVMHGRLNNIRVLLTECTVDAEAFNLRGQSPLHILGQYGKENAAAIFDLFLECMPGYPLDKPDADGSTVLLLAYMKGNANLCRAIVRSGARLGVNNNQGVNIFNYQVATKQLLFRLLDMLSKEPPWCDGSYCYECTARFGVTTRKHHCRHCGRLLCHKCSTKEIPIIKFDLNKPVRVCNICFDVLTLGGVS
modifications: here or on the partner: 35S-methionine labelled

Reference: article PMC514490
